Data reported in the supplement of paper PMC11417369.
± gives the standard deviation of the averaged measurements. The list shows a part of the results.

System: PfAP2-EXP AP2 domain (GST-tagged)
Assay: gcPBM binding intensity (ln(normalized median fluorescence intensity)); higher = stronger DNA binding
Method in brief: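 Each value is the highest Masliner-normalised natural-log median intensity across replicate spots of either orientation of a probe. The probes were primer-extended double-stranded 36-bp intergenic genomic sequences on an Agilent 4 × 180k array, alongside negative controls, exposed for 1 h to GST-tagged P. falciparum DNA-binding domains expressed in E. coli. Bound protein was picked up with Alexa488 anti-GST antibody and scanned at 488 nm.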

| Sequence | gcPBM binding intensity (ln) |
| --- | --- |
| TCGTCACTTTAATATTGTACATATATATATATATAT [XGTACX_site8046] | 10.3 ± 0.13 |
| AAAATTAATAAATAAACACACATATTTATATTTATA [CACACA_site7266] | 8.03 ± 0.41 |
| GATATATATATTCACACACACATGGAAATATATATA [CACACA_site382] | 8.56 ± 0.28 |
| ATATATATATGTGCCAGTACACATGTATACATTATA [XGTACX_site3899] | 9.59 ± 0.14 |
| CATATATAAAAAAACACACACATATTTATATTTATA [CACACA_site6682] | 8.43 ± 0.34 |
| AAAAAAATTTATAAATATTTTATTAATATATTTACC [GTGCAC_negctrl_site690] | 8.11 ± 0.27 |
| CATATTTCTTACATTTGTACTTAATAAAATTAATCA [XGTACX_site7224] | 8.41 ± 0.39 |
| ACACAAAACAAAAAGGTGCTGTATAAATGGGTGTAT [GTGCAC_site9905] | 9.12 ± 0.42 |
| TATCACATATTATGATGTACAAGGTTTCTGACTAAT [XGTACX_site2763] | 8.39 ± 0.36 |
| TTGTCTGACTAATTTTTTTCTGTTTGTACGTTCTTA [GTGCAC_negctrl_site602] | 8.74 ± 0.49 |
| TTTTTATACAACTTATAATACATCTGAAAATATAAA [XGTACX_negctrl_site36] | 8.16 ± 0.42 |
| ACAAAATAAATATGAACACACACATTTATGCCTTTA [CACACA_site8346] | 8.35 ± 0.54 |
| ATAATTATACATATTACACACTCTCTTGATCTTTTT [CACACA_site3853] | 8.64 ± 0.42 |
| ATTTCTTATTAAATTACACACAAAGTAAATAAATCT [CACACA_site3924] | 8.36 ± 0.33 |
| ATTTTAAATATGGAATGTACTTAAAAAAAATTTCAT [XGTACX_site5058] | 8.26 ± 0.18 |
| AATTAAATATTATAAACACACATATAGATTATTTTT [CACACA_site6538] | 8.17 ± 0.49 |
| TATAATAATATGGATTGTACATATATATTTAATTAA [XGTACX_site4327] | 8.18 ± 0.21 |
| AAATACATAACTTAAAATTTGTTCATATCTATACAT [TGCATGCA_negctrl_site249] | 8.45 ± 0.33 |
| TTGTTTTGGATTATCACACATATAATATATACTCAT [CACACA_site4780] | 8.65 ± 0.35 |
| TTTTCCTTTTTTTTTACATGCAGATATAGAAAGGTA [TGCATGCA_site106] | 8.88 ± 0.19 |
| GTAATTTTTTTCTATACACACATATCTATAATATAT [CACACA_site7284] | 8.77 ± 0.38 |
| TACTTATAATTTCAATGTACATATATATAATATCAT [XGTACX_site2424] | 8.39 ± 0.37 |

| Sequence | gcPBM binding intensity (ln) |
| --- | --- |
| TTTTTATAAGCATAAAGTACAAATATTTTTTAGTTG [XGTACX_site4140] | 8.21 ± 0.38 |
| TAAATCCGTTTGATGGGTACATACATACATACATAT [XGTACX_site8889] | 8.44 ± 0.33 |
| AACACCCATGGACACACACACATATATATATATATA [CACACA_site5809] | 10.1 ± 0.51 |
| ATTTATTTTAGTAAAGCACACGTGTAAAATATATCT [CACACA_site4820] | 9.07 ± 0.41 |
| ACAATAAAATATGGCACACATATATATATATATTTA [CACACA_site3] | 8.43 ± 0.34 |
| TTATTACATATAAAGGAAAATAGCATCTAGATTAAA [XGTACX_negctrl_site435] | 8.45 ± 0.35 |
| TCTTTTTTGAACTAGCGTACATGAAAATATTTATAG [XGTACX_site7359] | 8.51 ± 0.33 |
| TTTTTATTTATATATAAGGAAAATGCGGTATATATT [CACACA_negctrl_site1770] | 8.59 ± 0.42 |
| AAAAAAAAAAAAAAAAAATACATATACATTTGTGCA [CACACA_negctrl_site1431] | 8.66 ± 0.11 |
| AAAAAAAAAAAAAACACACACACACCCAAATACATA [CACACA_site708] | 8.63 ± 0.43 |
| TTTTTTCTTTTCAAGGTGCTTTATAAGAAAAAGGGA [GTGCAC_site9858] | 8.38 ± 0.18 |
| AGTATTATATTTTCTTGTACACATGTAAAATACCTC [XGTACX_site1359] | 8.95 ± 0.39 |
| TATTTTATCATTTGCACACGCACACCCACATAAAAA [CACACA_site354] | 8.83 ± 0.42 |
| TATATTAAAACAAGCACACAATCGCATAATATCCTT [CACACA_site3210] | 8.41 ± 0.51 |
| AAAAAAAAAAAAAAAACACACATATATGTATATATA [CACACA_site3276] | 8.28 ± 0.5 |
| CAATTACGCAGGAATGCACACAATAATAAAAAAAAT [CACACA_site3513] | 8.77 ± 0.43 |
| ATATATATATATATATGTACATATTTTTTATTTTAT [XGTACX_site5761] | 10.1 ± 0.5 |
| ATATGTTACTTTACATAAAGAAGAAGAAGAAGAAAA [CACACA_negctrl_site985] | 8.59 ± 0.37 |
| TATTATTCAAATAAAAGAAAAATATATATATTATAT [GTGCAC_negctrl_site273] | 8.3 ± 0.41 |
| TCCCCCTTTTTTTGATTTTTATCTTAATTCTAAAAG [GTGCAC_negctrl_site541] | 8.51 ± 0.39 |
| TTTCAAAAAGGAAGAAAAAAAAAAAAAAAAAATATA [XGTACX_negctrl_site514] | 8.22 ± 0.55 |
| TTTTTTTTTTGTAATACACACCACTATATGTTATTT [CACACA_site5087] | 8.76 ± 0.38 |

| Sequence | gcPBM binding intensity (ln) |
| --- | --- |
| AAACATTTAAATGGAAACACAGAAAAATGAAAAATG [CACACA_negctrl_site457] | 9.14 ± 0.5 |
| ATATATATATATACATGTACATATATACATTATATT [XGTACX_site936] | 9.99 ± 0.45 |
| ATGTTATATTTTTTTATACACACTGGAATATATAAA [CACACA_site215] | 8.57 ± 0.45 |
| ATTATTATTGTCAAATGTACAAGCTAATAATTTTTA [XGTACX_site7167] | 8.23 ± 0.35 |
| ATTTATAATGAGTATACACACATATATAGATTTGCT [CACACA_site4517] | 8.44 ± 0.43 |
| TATATATATATATATTGTACTTTATTTTATATATTC [XGTACX_site5697] | 10 ± 0.4 |
| AAAAAAAAAAAAAACATACACACAAGAACAAAATAT [CACACA_site3003] | 8.93 ± 0.52 |
| CAACAACATTTTTCATGTACATATATTTTATAATAT [XGTACX_site519] | 8.6 ± 0.31 |
| TAAAAAATAAAATACACACACATATTTATATTTATA [CACACA_site6737] | 8.14 ± 0.59 |
| ATTTTCAAATTATCAGATGAATCTTTTTAAGATCTT [XGTACX_negctrl_site598] | 8.02 ± 0.36 |
| AAACTATACCAAAACACACATACAAAATATAAAAAA [CACACA_site2707] | 8.82 ± 0.33 |
| GGGAAAAAATGAGGTCGTACATTTTTCATCACAAAT [XGTACX_site8920] | 8.64 ± 0.52 |
| GTCTGCATATGGATACGTACACATATATATTAATGT [XGTACX_site2260] | 8.78 ± 0.17 |
| TTTTTTTTTTTTTTTTTACACACTGCATACAAGAAA [CACACA_site3026] | 8.46 ± 0.42 |
| CTCATATATAACACATGTACACAGATTTTGCAAATG [XGTACX_site6879] | 9.21 ± 0.43 |
| AATGAATGTACATACGCATGTACTTGACTAAATTAT [TGCATGCA_site436] | 8.81 ± 0.36 |
| TTTTTTATGAGGTGGTGTACTTTTTTTTTTTTCTTT [XGTACX_site8550] | 8.48 ± 0.54 |
| ATAAATAAAACAACAGTGCAATAAAATTAGTTGAGG | 9.035 ± 0.021 |
| TGGTAATACCCATACACACACACATACCCATATATA [CACACA_site5509] | 8.61 ± 0.49 |
| ATTAAAGAGAGACATCAACACACATACGTATGTATA [CACACA_site8393] | 8.39 ± 0.46 |
| TTCAAATAAATAGTAGTGCATATTTATTAATGTAAA | 8.52 ± 0.13 |
| CAAGAAACAGTGATACGTACACATATATATATATAT [XGTACX_site3229] | 10.2 ± 0.32 |

| Sequence | gcPBM binding intensity (ln) |
| --- | --- |
| TAATATATTATAAACACATGCACATTAATAATAACT [TGCATGCA_site708] | 8.92 ± 0.18 |
| ATATGAAACATGAAGGTGCATAATGTGTATATTTAT | 8.92 ± 0.14 |
| ACATAAATATATTTTTCACACATCATTAGTTATGAA [CACACA_site4724] | 8.66 ± 0.51 |
| TATATATATATATATGTGCACATTTTATTAAAATGT | 10.2 ± 0.34 |
| ATAGACATTTTACTTTGTACATATAAACATATATAT [XGTACX_site2733] | 8.79 ± 0.56 |
| TATTTTTTAAAAAAACGTACAAACATAATAAAAATA [XGTACX_site1857] | 8.96 ± 0.44 |
| AAGGTATGATTAATCACACACATAAATATAAATACA [CACACA_site5464] | 8.46 ± 0.13 |
| AAGCTTCATTAATATACACACATATATGTGTATATT [CACACA_site7693] | 8.61 ± 0.41 |
| ATAAAATATAGGTATGCACACACATATACTTCTGTG [CACACA_site8398] | 8.53 ± 0.3 |
| GATATATGTATAATAACGCACACTACAAAAATAAAA [CACACA_site2100] | 8.77 ± 0.31 |
| AATAAAGAAGAAGAAAGTACACATTTCACAAAGGGG [XGTACX_site1308] | 8.94 ± 0.42 |
| TATATAATACGAATTTGTACATATTAAATAAATTAT [XGTACX_site93] | 8.41 ± 0.37 |
| GTTAGTTTTAGTTCATGTACATAATAGAAAATATAT [XGTACX_site7125] | 8.64 ± 0.25 |
| AAAAAAAAAAACGACAGTACAATTATAATTTATATT [XGTACX_site2365] | 8.55 ± 0.54 |
| AGAGTTAAACGATATATATAAATATATATATATATA [GTGCAC_negctrl_site316] | 9.87 ± 0.33 |
| AGATCATAATATTATACACACATTAGATATAGGTAA [CACACA_site6809] | 8.54 ± 0.36 |
| ATGTCTTAAAAATTAAAACACACGTTCACTTTCATA [CACACA_site3385] | 8.49 ± 0.38 |
| ATATTAATGATATATACACACATAAGTATTGTATAT [CACACA_site7844] | 8.18 ± 0.43 |
| AAATGTAATTTGTCTTTTATTTATATTTGACATGAT [TGCATGCA_negctrl_site520] | 8.04 ± 0.43 |
| TTTTTTTTTTTTTTTTTTTTTTTGCTCAGTGTGGTA [CACACA_negctrl_site29] | 7.97 ± 0.43 |
| TTGATGGGAAAAAACTTTTTTTTCTTTTTTTCTTTC [CACACA_negctrl_site328] | 8.04 ± 0.5 |
| AAAAATTATAAAAAACAAATATTAAATAATTATTAA [GTGCAC_negctrl_site125] | 8.24 ± 0.35 |
